Screen size: about 350,000 compounds; about 9,900 (2.8%) were called active. Inconclusive results, whose numbers are uncertain, are shown with a selection of clear calls. Calls follow the shape of the dose curve; as a rule, active = well fitted activation curve with a large enough effect; inconclusive = small, poorly fitted or top-dose-only effect; inactive = no such curve, though single readings can be large or run the other way. No potency is given beside an inconclusive call; the fits are too rough.
assay: A quantitative high throughput screen for small molecules that induce DNA re-replication in MCF 10a normal breast cells.; also: nearly all actives have a fitted effect of over 50% in size; as to activity, positive = re-replication: % of control where 0% means no effect; details: MCF 10A DNA re-replication, Hoechst nuclear intensity, 48 h; activity, positive = re-replication: at 46.1 µM (top of the series)
Potency is read from the fitted curve at half-maximal effect; tags tell the direction and shape of the fitted curve.

Row | Compound | Potency | activity, positive = re-replication
1 | COc1ccc(-n2c(SC)nc3sc4c(c3c2=O)CCN(C)C4)cc1 | inconclusive [activator, single point] | 
2 | COc1ccc(CCC(=O)N2CCCc3ccccc32)cc1 | inconclusive [activator, partial curve, poor fit] | 
3 | Cc1c(C)n(C)c2ccc(C(=O)NCCCN3CCCCC3)cc12 |  | inactive: 5.42%
4 | O=C1C=CC(=O)N1c1ccc(N2CCCCC2)cc1 | inconclusive [activator, full curve] | 
5 | CC(C)Cc1ccc(CN2CCCC(NC(=O)c3ccoc3)C2)cc1 (configuration not stated) | inconclusive [activator, single point] | 
6 | COCCOC(=O)C1=C(C)NC2=C(C(=O)CC(C)(C)C2)C1c1ccc(N(C)C)cc1 (configuration not stated) | inconclusive [activator, full curve, poor fit] | 
7 | CCNc1nc2ccccc2[nH]1 |  | inactive: -8.15%
8 | O=c1c2cc(-c3ccccc3)sc2ncn1/N=C/c1ccco1 | inconclusive [activator, single point] | 
9 | c1ccc2oc(-c3ccc(Nc4nc(N5CCOCC5)nc(N5CCOCC5)n4)cc3)nc2c1 | inconclusive [activator, single point] | 
10 | Cc1ccc(Nc2nc(N/N=C/c3c[nH]c4ccccc34)nc(N3CCOCC3)n2)cc1 | inconclusive [activator, single point] | 
11 | COc1cccc(CN(C)C(=O)c2cc(S(=O)(=O)NC3CCCCC3)ccc2C)c1OC |  | inactive: 1.13%
12 | Cc1cc(NC(=O)C2CCCCC2)n(-c2nc3ccccc3[nH]2)n1 | inconclusive [activator, partial curve, poor fit] | 
13 | CCOC(=O)N1CCN(C(=S)Nc2ccc(C)c(C)c2)CC1 |  | inactive: 0.793%
14 | CCCN1C(=O)C(O)(CC(=O)c2cccc(OC)c2)c2ccccc21 (configuration not stated) |  | inactive: 2.86%
15 | COc1ccc(S(=O)(=O)N(C)c2ccc(C(=O)N3CCN(C)CC3)cc2)cc1 | inconclusive [activator, partial curve] | 
16 | NCC(c1ccco1)c1c[nH]c2ccccc12 (configuration not stated) | inconclusive [activator, single point] | 
17 | O=C1c2ccc(Oc3ccc4c(c3)C(=O)N(CCCCO)C4=O)cc2C(=O)N1CCCCO | inconclusive [activator, partial curve, poor fit] | 
18 | O=C(N/N=C/c1ccc[nH]1)c1ccccc1OCc1ccccc1Cl |  | inactive: 2.56%
19 | COc1ccc2oc(C(=O)N(CC(C)C)C3CCS(=O)(=O)C3)c(C)c2c1 (configuration not stated) | inconclusive [activator, partial curve, poor fit] | 
20 | CCN1C(=O)/C(=C/c2cccs2)N(C)C1=S |  | inactive: -0.367%
21 | Cc1nc(CNC(=O)CC2C(=O)NCCN2Cc2ccc(F)cc2)cs1 (configuration not stated) |  | inactive: 1.76%
22 | Cc1ccc(-n2nnnc2SCC(=O)Nc2ccc3c(c2)OCCO3)cc1C | inconclusive [activator, partial curve] | 
23 | Cc1ccc(OCc2nnc(SCC(=O)C(C)(C)C)n2Cc2ccco2)cc1 | inconclusive [activator, partial curve, poor fit] | 

Row | Compound | Potency | activity, positive = re-replication
24 | O=C(c1ccco1)N1CCN(S(=O)(=O)N2CCOCC2)CC1 | inconclusive [activator, full curve, poor fit] | 
25 | C/C(=N\OCC(=O)Nc1ccc(OC(F)(F)F)cc1)c1ccc2c(c1)OCCO2 | inconclusive [activator, partial curve, poor fit] | 
26 | Cc1ccccc1S(=O)(=O)Cc1ccc(C(=O)O)o1 | inconclusive [activator, single point] | 
27 | CN(Cc1ccc(C(C)(C)C)cc1)C(=O)c1ccc2c(c1)OCO2 | inconclusive [activator, single point] | 
28 | COC(=O)c1ccc(Oc2cc(C)nc(-n3nc(C)cc3C)n2)cc1 | active: 2.06 µM | 
29 | COc1ccc(CNC(=O)C(C)n2ccc3cc(S(=O)(=O)N4CCCCCC4)ccc32)cc1 (configuration not stated) | inconclusive [activator, single point] | 
30 | COc1ccc2nc(-n3c(C)ccc3C)sc2c1 | inconclusive [activator, single point] | 
31 | Cc1ccc(S(=O)(=O)N2CCC(C(=O)Nc3ncccc3O)CC2)cc1 |  | inactive: 24.8%
32 | COc1ccc(NC(=O)c2sc3nc(C)cc(C)c3c2N)c(OC)c1 | inconclusive [activator, single point] | 
33 | Cc1ccc(NC(=O)C(C)Oc2ccccc2)cc1S(=O)(=O)N1CCCCCC1 (configuration not stated) |  | inactive: 13.3%
34 | CCCc1[nH]nc2c1C(C1CCCCC1)C(C#N)=C(N)O2 (configuration not stated) | inconclusive [activator, single point] | 
35 | COc1ccc(O)c(-c2cc(-c3cccc(Br)c3)n[nH]2)c1 | inconclusive [activator, partial curve, poor fit] | 
36 | Cc1c(OC(C)C(=O)NC2CC(C)(C)NC(C)(C)C2)ccc2c3c(c(=O)oc12)CCC3 (configuration not stated) | inconclusive [activator, full curve, poor fit] | 
37 | O=C(C[n+]1cccc2ccccc21)c1ccc([N+](=O)[O-])cc1 | inconclusive [activator, single point] | 
38 | CCCN1C(=O)/C(=C/C=C2\N(CC)c3ccccc3C2(C)C)SC1=S | inconclusive [activator, full curve, poor fit] | 
39 | COc1cc(NC(=O)c2ccc3c(c2)OCO3)c2ncccc2c1 | inconclusive [activator, single point] | 
40 | Cc1ccc(-c2c(C#N)c(N)n(-c3ccccc3)c(=O)c2C#N)cc1 |  | inactive: -4.33%
41 | CCOc1ccc(Cl)cc1S(=O)(=O)n1nnc2ccccc21 |  | inactive: -26.3%
42 | CCCC[n+]1ccn(-c2nc3ccccc3nc2[N-]S(=O)(=O)c2ccc(Br)cc2)c1 | inconclusive [activator, partial curve, poor fit] | 
43 | O=C(C[C@H]1C/C=C\C[C@@H](Cc2ccc(F)cc2)C(=O)OC[C@H]2CCCN2C1=O)N[C@@H](CO)Cc1ccccc1 | inconclusive [activator, full curve, poor fit] | 
44 | CC(=O)c1cccc(CN2CCN(Cc3ccccc3)C(CCO)C2)c1 (configuration not stated) |  | inactive: 1.4%
45 | Cc1ccccc1C(=O)Nc1nnc(-c2ccc(C(C)(C)C)cc2)s1 | inconclusive [activator, partial curve, poor fit] | 
46 | COC(=O)c1cc(NC(=O)C2CC2)cc(C(=O)OC)c1 | inconclusive [activator, single point] | 

Row | Compound | Potency | activity, positive = re-replication
47 | COc1ccc(OC(=O)COc2cc(C)ccc2C)cc1 | inconclusive [activator, single point] | 
48 | O=C(/C=C/c1ccc(OCc2ccccc2)c(OCc2ccccc2)c1)c1cccnc1 | inconclusive [activator, partial curve, poor fit] | 
49 | CCN(CC)S(=O)(=O)c1cccc(C(=O)OCC(=O)NCCN2C(=O)CSC2=O)c1 |  | inactive: -1.85%
50 | COc1ccc(CC(=O)Nc2nc(-c3ccccc3)c(C(C)=O)s2)cc1OC | inconclusive [activator, single point] | 
51 | Cc1ccc(C(C(=O)NCC2CCCO2)N(C(=O)c2snc(C(N)=O)c2N)c2ccccc2)o1 (configuration not stated) | inconclusive [activator, partial curve, poor fit] | 
52 | COc1ccc(NC(=O)CSc2nncc3ccccc23)cc1 | inconclusive [activator, partial curve, poor fit] | 
53 | Cn1nnnc1N=N/C(=N/Nc1ccccc1)c1ccccc1 | inconclusive [activator, full curve] | 
54 | COc1cc(/C=N/NC(=O)CCC(=O)Nc2ccc(Br)cc2)ccc1O |  | inactive: -2.39%
55 | CCOC(=O)c1c(C)[nH]c(C(=O)CSc2nnnn2-c2ccccc2)c1C |  | inactive: 16%
56 | COc1ccc(-c2csc(NC(=S)NC(=O)c3cccs3)n2)cc1Br | inconclusive [activator, partial curve] | 
57 | COc1ccc2cc(C(=O)Nc3ccccc3)sc(=O)c2c1OC | inconclusive [activator, single point] | 
58 | C[C@@H]1CN([C@H](C)CO)C(=O)Cc2cc(NC(=O)CCC(F)(F)F)ccc2O[C@@H]1CN(C)S(=O)(=O)c1ccccc1 |  | inactive: -15.6%
59 | Cn1c(=O)c2c(ncn2Cc2cccc(Cl)c2)n(C)c1=O |  | inactive: -5.08%
60 | CC(=O)Oc1c(Br)cc(N(C(C)=O)S(=O)(=O)c2ccccc2)c2ccccc12 | active: 16.4 µM | 
61 | CCOC(=O)c1ccccc1N1C(=O)CSC1=S | inconclusive [activator, single point] | 
62 | COc1ccc(C(=O)N/N=C(\c2ccccc2)c2ccccn2)cc1 | inconclusive [activator, full curve, poor fit] | 
63 | CC(C)(C)Nc1nc(SCC(=O)Nc2ccccc2)nc(N2CCOCC2)n1 | inconclusive [activator, partial curve, poor fit] | 
64 | O=C(NCC1(c2ccccc2)CCCC1)c1ccccc1Br | inconclusive [activator, full curve] | 
65 | Cc1csc(NC(=O)Cc2coc3cc(C)c(C(C)C)cc23)n1 | inconclusive [activator, partial curve, poor fit] | 
66 | Cc1cc(NC(=O)CSc2nc3ccccc3c(=O)n2Cc2ccc(F)cc2)no1 | inconclusive [activator, partial curve, poor fit] | 
67 | COc1ccccc1N1CCN(C(=O)c2oc3ccc(Br)cc3c2C)CC1 | active: 16.4 µM | 

From PubChem BioAssay AID624296 (National Center for Advancing Translational Sciences (NCATS), 2012)
